Measurements as given in doi:10.1101/2023.09.28.559893 (bioRxiv, 2023).

Target: T1, TRIAD3A_UR (UR fragment: amino acid 260-750) (human, UniProt Q9NWF9-2 260-750)
T1 sequence: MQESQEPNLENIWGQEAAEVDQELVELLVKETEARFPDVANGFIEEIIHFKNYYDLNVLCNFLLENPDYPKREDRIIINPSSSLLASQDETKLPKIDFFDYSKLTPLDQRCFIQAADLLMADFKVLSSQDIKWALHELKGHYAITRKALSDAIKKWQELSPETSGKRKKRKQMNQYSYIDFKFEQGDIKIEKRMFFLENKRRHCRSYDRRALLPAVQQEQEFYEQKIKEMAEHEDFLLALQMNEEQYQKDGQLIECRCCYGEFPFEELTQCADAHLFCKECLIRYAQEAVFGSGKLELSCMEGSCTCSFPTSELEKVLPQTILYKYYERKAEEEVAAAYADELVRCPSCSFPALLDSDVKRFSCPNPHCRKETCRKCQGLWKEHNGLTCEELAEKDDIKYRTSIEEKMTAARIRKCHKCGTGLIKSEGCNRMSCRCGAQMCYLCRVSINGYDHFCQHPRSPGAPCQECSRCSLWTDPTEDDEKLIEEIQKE
Experiment: pull-down

B1: recombinant human tau 0N4R (natural protein)
chain: not shown
binding result: binds
